# Results taken from the supplement of paper PMC8728848.
# The list shows a part of the results.
# B1: Gal 7 (Homo sapiens) (protein)
# chain: MSNVPHKSSLPEGIRPGTVLRIRGLVPPNASRFHVNLLCGEEGGSDAALHFNPRLDTSEVVFNSKEGGSWGREERGPGVPFGRGQPFEVLIIASDDGFKAVVGDAQYHHFRHRLPLARVRLVEVGGDVQLDSVRIF
# Key:
# Assay in all cases: glycan array binding signal (z-score within array); higher = stronger binding
# Conditions in all cases: glycan notation: IUPAC condensed, linker removed
# [1] = biological target: Fuc(a1-3)[Gal(b1-4)]GlcNAc(b1-4)Gal(b1-4)[Fuc(a1-3)]GlcNAc
# In short: (§1)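 The binding signal is a Z-score computed within each array and averaged over linkers. Arrays of the same protein sequence at different concentrations or buffers were also averaged together. Data originate from 3228 arrays in the Consortium for Functional Glycomics database, kept only where the protein sequence was available.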
# [2] = biological target: Fuc(a1-3)[Gal(b1-4)]GlcNAc(b1-4)Gal(b1-4)[Fuc(a1-3)]GlcNAc(b1-4)Gal(b1-4)[Fuc(a1-3)]GlcNAc
# In short: as §1
# [3] = biological target: Fuc(a1-3)[Gal(b1-4)]GlcNAc(b1-6)GalNAc
# In short: as §1
# [4] = biological target: Fuc(a1-3)[Gal(b1-4)]GlcNAc(b1-6)[Gal(b1-3)GlcNAc(b1-3)]Gal(b1-4)Glc
# In short: as §1
# [5] = biological target: Fuc(a1-3)[Gal(b1-4)]GlcNAc(b1-6)[Neu5Ac(a2-3)Gal(b1-3)]GalNAc
# In short: as §1
# [6] = biological target: Fuc(a1-3)[Gal(b1-4)]GlcNAc6S
# In short: as §1
# [7] = biological target: Fuc(a1-3)[Gal3S(b1-4)]Glc
# In short: as §1
# [8] = biological target: Fuc(a1-3)[Gal3S(b1-4)]Glc6S
# In short: as §1
# [9] = biological target: Fuc(a1-3)[Gal3S(b1-4)]GlcNAc
# In short: as §1
# [10] = biological target: Fuc(a1-3)[Gal3S(b1-4)]GlcNAc6S
# In short: as §1
# [11] = biological target: Fuc(a1-3)[GalNAc(b1-4)]Gal(b1-4)GlcNAc
# In short: as §1
# [12] = biological target: Fuc(a1-3)[GalNAc(b1-4)]GlcNAc
# In short: as §1
# [13] = biological target: Fuc(a1-3)[GalNAc(b1-4)]GlcNAc6S
# In short: as §1
# [14] = biological target: Fuc(a1-3)[GalNAc3S(b1-4)]GlcNAc
# In short: as §1
# Fuc(a1-4)GlcNAc = biological target: Fuc(a1-4)GlcNAc
# In short: as §1
# Fuc(b1-3)GlcNAc = biological target: Fuc(b1-3)GlcNAc
# In short: as §1
# Gal(a1-2)Gal = biological target: Gal(a1-2)Gal
# In short: as §1
# Gal(a1-3)Gal = biological target: Gal(a1-3)Gal
# In short: as §1
# Gal(a1-3)Gal(b1-3)Glc = biological target: Gal(a1-3)Gal(b1-3)Glc
# In short: as §1
# Gal(a1-3)Gal(b1-3)GlcNAc = biological target: Gal(a1-3)Gal(b1-3)GlcNAc
# In short: as §1
# [15] = biological target: Gal(a1-3)Gal(b1-3)GlcNAc(b1-2)Man
# In short: as §1
# [16] = biological target: Gal(a1-3)Gal(b1-3)GlcNAc(b1-2)Man(a1-3)[Gal(a1-3)Gal(b1-3)GlcNAc(b1-2)Man(a1-6)]Man(b1-4)GlcNAc(b1-4)GlcNAc
# In short: as §1
# [17] = biological target: Gal(a1-3)Gal(b1-3)GlcNAc(b1-3)GalNAc
# In short: as §1
# [18] = biological target: Gal(a1-3)Gal(b1-3)GlcNAc(b1-6)GalNAc
# In short: as §1
# [19] = biological target: Gal(a1-3)Gal(b1-3)[Fuc(a1-4)]GlcNAc(b1-2)Man(a1-3)[Gal(a1-3)Gal(b1-3)[Fuc(a1-4)]GlcNAc(b1-2)Man(a1-6)]Man(b1-4)GlcNAc(b1-4)GlcNAc
# In short: as §1
# Gal(a1-3)Gal(b1-4)Glc = biological target: Gal(a1-3)Gal(b1-4)Glc
# In short: as §1
# Gal(a1-3)Gal(b1-4)GlcNAc = biological target: Gal(a1-3)Gal(b1-4)GlcNAc
# In short: as §1
# [20] = biological target: Gal(a1-3)Gal(b1-4)GlcNAc(b1-2)Man
# In short: as §1
# [21] = biological target: Gal(a1-3)Gal(b1-4)GlcNAc(b1-2)Man(a1-3)[Gal(a1-3)Gal(b1-4)GlcNAc(b1-2)Man(a1-6)]Man(b1-4)GlcNAc(b1-4)GlcNAc
# In short: as §1
# [22] = biological target: Gal(a1-3)Gal(b1-4)GlcNAc(b1-3)GalNAc
# In short: as §1
# [23] = biological target: Gal(a1-3)Gal(b1-4)GlcNAc(b1-6)GalNAc
# In short: as §1
# [24] = biological target: Gal(a1-3)Gal(b1-4)[Fuc(a1-3)]GalNAc
# In short: as §1
# [25] = biological target: Gal(a1-3)Gal(b1-4)[Fuc(a1-3)]GlcNAc
# In short: as §1
# [26] = biological target: Gal(a1-3)Gal(b1-4)[Fuc(a1-3)]GlcNAc(b1-2)Man(a1-3)[Gal(a1-3)Gal(b1-4)[Fuc(a1-3)]GlcNAc(b1-2)Man(a1-6)]Man(b1-4)GlcNAc(b1-4)GlcNAc
# In short: as §1
# Gal(a1-3)GalNAc = biological target: Gal(a1-3)GalNAc
# In short: as §1
# Gal(a1-3)GlcNAc = biological target: Gal(a1-3)GlcNAc
# In short: as §1
# [27] = biological target: Gal(a1-3)[Gal(a1-4)]Gal(b1-4)GlcNAc
# In short: as §1
# [28] = biological target: Gal(a1-4)Gal(b1-3)GlcNAc(b1-2)Man(a1-3)[Gal(a1-4)Gal(b1-3)GlcNAc(b1-2)Man(a1-6)]Man(b1-4)GlcNAc(b1-4)GlcNAc
# In short: as §1
binder,measurement,setting,value
B1,glycan array binding signal (z-score),[1],-0.214
same,glycan array binding signal (z-score),[2],-0.332
same,glycan array binding signal (z-score),[3],0.994
same,glycan array binding signal (z-score),[4],-0.117
same,glycan array binding signal (z-score),[5],0.659
same,glycan array binding signal (z-score),[6],-0.157
same,glycan array binding signal (z-score),[7],-0.272
same,glycan array binding signal (z-score),[8],-0.263
same,glycan array binding signal (z-score),[9],-0.295
same,glycan array binding signal (z-score),[10],-0.093
same,glycan array binding signal (z-score),[11],-0.292
same,glycan array binding signal (z-score),[12],-0.051
same,glycan array binding signal (z-score),[13],-0.146
same,glycan array binding signal (z-score),[14],0.008
same,glycan array binding signal (z-score),Fuc(a1-4)GlcNAc,-0.324
same,glycan array binding signal (z-score),Fuc(b1-3)GlcNAc,-0.303
same,glycan array binding signal (z-score),Gal(a1-2)Gal,-0.321
same,glycan array binding signal (z-score),Gal(a1-3)Gal,-0.307
same,glycan array binding signal (z-score),Gal(a1-3)Gal(b1-3)Glc,1.04
same,glycan array binding signal (z-score),Gal(a1-3)Gal(b1-3)GlcNAc,0.672
same,glycan array binding signal (z-score),[15],-0.242
same,glycan array binding signal (z-score),[16],0.227
same,glycan array binding signal (z-score),[17],0.002
same,glycan array binding signal (z-score),[18],-0.186
same,glycan array binding signal (z-score),[19],0.347
same,glycan array binding signal (z-score),Gal(a1-3)Gal(b1-4)Glc,-0.304
same,glycan array binding signal (z-score),Gal(a1-3)Gal(b1-4)GlcNAc,0.303
same,glycan array binding signal (z-score),[20],-0.282
same,glycan array binding signal (z-score),[21],-0.245
same,glycan array binding signal (z-score),[22],-0.281
same,glycan array binding signal (z-score),[23],-0.147
same,glycan array binding signal (z-score),[24],-0.351
same,glycan array binding signal (z-score),[25],-0.242
same,glycan array binding signal (z-score),[26],0.003
same,glycan array binding signal (z-score),Gal(a1-3)GalNAc,-0.237
same,glycan array binding signal (z-score),Gal(a1-3)GlcNAc,-0.34
same,glycan array binding signal (z-score),[27],-0.311
same,glycan array binding signal (z-score),[28],-0.011
